The densities may have been worked out from excess volumes.
Assay: xn = mol fraction of the nth substance listed
Conditions: 100 kPa, x1 = 0.2

C[P+](c1ccccc1)(c1ccccc1)c1ccccc1.[Br-] + OCCO
Conditions | mass density [kg/m3]
298.15 K | 1224
303.15 K | 1220
308.15 K | 1217
318.15 K | 1209
333.15 K | 1199
338.15 K | 1195
343.15 K | 1192
348.15 K | 1188
353.15 K | 1184
358.15 K | 1181
